Data: publication PMC4336329 (PLoS ONE, 2015)
Among all 310,000 compounds or so, about 2,200 (0.71%) showed an effect of 50% or more. The effect is printed as a negative number. The list shows a part of the results.

Each compound was assayed against human ether-à-go-go-related gene (hERG) potassium channel (human, UniProt Q12809) (assay: primary screen, population patch clamp on CHO cells stably expressing hERG).
human ether-à-go-go-related gene (hERG) potassium channel, sequence (Q12809 whole entry, looked up): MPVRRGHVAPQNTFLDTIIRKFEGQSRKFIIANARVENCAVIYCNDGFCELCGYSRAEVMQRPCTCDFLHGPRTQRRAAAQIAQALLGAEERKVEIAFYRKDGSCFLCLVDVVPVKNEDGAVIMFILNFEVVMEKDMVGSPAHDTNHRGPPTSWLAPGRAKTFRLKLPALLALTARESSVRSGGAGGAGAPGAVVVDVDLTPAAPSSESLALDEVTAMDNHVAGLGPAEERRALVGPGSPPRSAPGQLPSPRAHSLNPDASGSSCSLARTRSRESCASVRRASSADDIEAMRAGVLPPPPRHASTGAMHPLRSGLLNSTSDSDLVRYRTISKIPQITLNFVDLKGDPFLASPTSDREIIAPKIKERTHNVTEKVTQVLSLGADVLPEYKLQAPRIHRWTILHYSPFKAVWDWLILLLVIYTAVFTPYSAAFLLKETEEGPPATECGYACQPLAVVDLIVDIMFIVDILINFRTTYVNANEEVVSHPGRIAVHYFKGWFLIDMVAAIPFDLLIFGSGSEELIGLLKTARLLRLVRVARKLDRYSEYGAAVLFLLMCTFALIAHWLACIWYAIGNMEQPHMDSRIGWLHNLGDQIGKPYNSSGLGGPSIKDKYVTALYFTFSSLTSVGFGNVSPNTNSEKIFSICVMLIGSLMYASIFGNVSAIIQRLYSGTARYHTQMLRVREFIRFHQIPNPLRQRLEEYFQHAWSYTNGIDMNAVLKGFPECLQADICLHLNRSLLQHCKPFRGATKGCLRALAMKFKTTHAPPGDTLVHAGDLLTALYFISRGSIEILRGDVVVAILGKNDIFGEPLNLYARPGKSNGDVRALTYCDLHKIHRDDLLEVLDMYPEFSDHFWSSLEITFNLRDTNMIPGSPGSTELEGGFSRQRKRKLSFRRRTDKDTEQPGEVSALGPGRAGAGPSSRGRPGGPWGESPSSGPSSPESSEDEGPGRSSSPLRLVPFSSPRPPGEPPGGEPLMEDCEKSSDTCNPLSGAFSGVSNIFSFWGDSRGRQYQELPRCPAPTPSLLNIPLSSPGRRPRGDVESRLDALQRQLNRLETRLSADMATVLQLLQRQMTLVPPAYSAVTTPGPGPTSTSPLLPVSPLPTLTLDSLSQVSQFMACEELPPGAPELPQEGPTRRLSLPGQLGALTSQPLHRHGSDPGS

Structure (SMILES)	hERG current change (%, negative = inhibition) at 1uM
CC1(C)SC(=S)N(NC(=O)Nc2ccccc2)C1N(O)C(=O)Nc1cccc2ccccc12 (stereo not shown)	9.13%
CN(C)C(CNC(=O)CCC(=O)c1ccc(Br)cc1)c1ccccc1 (stereo not shown)	7.41%
Cc1ccc(-n2ncc3c(NCCCn4ccnc4)ncnc32)c(C)c1	-4.34%
O=c1cc(CN2CCN(CCO)CC2)c2cc3c(cc2o1)CCC3	-5.45%
CCOC(=O)c1sc(NC(=O)CSc2nc3c(c(-c4ccc(OC)cc4)c2C#N)CCCC3)c(C#N)c1C	31.6%
C=CCOc1ccc(C2NC(=O)c3ccccc3O2)cc1OCC (stereo not shown)	11.4%
COc1ccc(CN(C)C2c3ccccc3-c3ccccc32)cc1	9.64%
CCc1ccc(-c2nc(SCC(=O)c3c(N)n(C4CC4)c(=O)[nH]c3=O)n[nH]2)cc1	1.89%
O=C(CCn1nc(-c2ccc(Cl)cc2)c2ccccc2c1=O)NN1CCOCC1	-3.68%
Cn1c(SCC(=O)c2ccccc2)nnc1-c1cnccn1	3.2%
CC(=O)N1c2ccccc2N(Cc2ccc([N+](=O)[O-])cc2)C(=O)C1(C)C	1.47%
CC1CCCN(C(=O)CSc2n[nH]c(-c3cccs3)n2)C1 (stereo not shown)	12.2%
CCOC(=O)c1cc(C)n(-n2cnnc2)c1C	2.64%
CC(C)(C)NC(=O)c1ccc(COc2ccc(Cl)cc2Cl)o1	18.1%
COc1c2occc2cc2ccc(=O)oc12	13.1%
COc1ccc(C(=O)NN(C)c2nc(-c3ccccc3)cc(C)c2S(C)(=O)=O)cc1	9.6%
Cl.O=C(Cn1c(NCCO)nc2ccccc21)c1ccc(Cl)cc1Cl	8.38%
Cc1ccc(C(=O)Oc2ccccc2N2C(=O)C3CCC(C)CC3C2=O)cc1 (stereo not shown)	0.627%
Cc1cc(C)n2nc(S(=O)(=O)N(C)c3ccccc3)nc2n1	7.79%
CCCc1nnc(SCC(=O)Nc2ccc(OCC)cc2)n1N	-3.13%
COC(=O)c1cn(C(=O)c2cccc3ccccc23)c2ccccc12	14.5%
CC(=O)OC1CCC2(/C=N/O)C(=CCC3C4CCC(=O)C4(C)CCC32)C1 (stereo not shown)	10.6%
CSc1ccc(NC(N)=S)cc1	9.33%

Structure (SMILES)	hERG current change (%, negative = inhibition) at 1uM
COc1ccccc1/C=C/C(=O)NCC(=O)N/N=C/c1ccc(C(=O)O)cc1	17.9%
NS(=O)(=O)c1cccc(NC(=O)c2cncc(Br)c2)c1	17.5%
COc1ccc(S(=O)(=O)N2CCOCC2)cc1C(=O)NCC(c1ccco1)N1CCCC1 (stereo not shown)	15.1%
Cc1ccc(CNC(=O)CCS(=O)(=O)c2cc3c(cc2Cl)NC(=O)CO3)o1	-0.206%
Cn1c(/C(C#N)=C/Nc2ccccn2)nc2ccccc21	6.54%
CC(=O)c1ccc(NC(=O)C[n+]2cccc(C)c2)cc1.[Cl-]	9.24%
Cc1cc(NC(=O)CS(=O)(=O)c2cn(Cc3cccc(F)c3)c3ccccc23)no1	8.45%
CCCOC(=O)C(=O)NNc1ccccc1	11.1%
CCC(C)(C)NC(=O)CN(Cc1cccs1)C(=O)CNS(=O)(=O)c1ccc(F)cc1	5.64%
Cc1onc(-c2ccccc2Cl)c1C(=O)N/N=C(\N)COc1ccc(Cl)cc1	-0.169%
COc1ccc(NC(=O)Nc2ccc(C)cc2OC(F)F)cc1OC	7.51%
O=C(Cn1ccc(NC(=O)OCc2ccccc2)nc1=O)NCc1ccc2c(c1)OCO2	13.4%
O=S(=O)(c1cnc(Cl)c(Cl)c1)N1CCc2ccccc21	14.8%
O=C(NC(=S)Nn1cnnc1)c1ccccc1Cl	14.6%
COc1ccc(/C=C2/SC(=S)N(Cc3ccccc3)C2=O)cc1O	12%
Cc1cc(C(=O)CC#N)c(C)n1-c1ccc(OC(F)F)cc1	6.21%
CC(C)(C)OC(=O)N1CCC[C@H]1C(=O)NCc1ccc(Cl)cc1Cl	8.79%
CCNC(=S)N1CCN(CCN2C(=O)c3cccc4cccc(c34)C2=O)CC1	1.34%
COc1ccccc1NS(=O)(=O)c1cc(NC(C)=O)ccc1N1CCCCC1	5.07%
NC(=O)C[n+]1cccc(C(=O)Nc2ccccc2)c1.[I-]	13.6%
Cc1ccc(NC(=S)N/N=C2\CCCCC2C)cc1 (stereo not shown)	-11.7%
O=C(c1ccc(Cl)c(S(=O)(=O)N2CCCCC2)c1)N1CCCCC1	8.94%
CN(C)c1nc(N)nc(CSc2nc3cc(Cl)ccc3o2)n1	10.7%
